Our source for the activity change, negative = inhibition values is PubChem BioAssay AID1745853 (National Center for Advancing Translational Sciences (NCATS), 2022).

Molecules are shown by their SMILES. Where “and” joins values, the source holds several entries; their conditions need not be identical. Equal entries are not always repeated. The list shows a part of the results. These are further read-outs of the screen, such as a control signal, another cell line or another target. No call is given for them. Peptide text beside a SMILES is read from it. * marks the point of attachment. AFC = O=c1cc(C(F)(F)F)c2ccc(N*)cc2o1

What all share (experiment): Primary Screen for Target Class Profiling of Small Molecule Inhibitors of Methyltransferases
Assay [1] deals with Glycine N-methyltransferase (Homo sapiens) (UniProt Q14749). Conditions: purified enzyme, MTase-Glo SAH luminescence; measured here: GNMT inhibition; at 40 µM; stronger effect = lower value. In a few lines: (§1)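 Each enzyme was reacted with SAM and its substrate, with compounds tested once at 40 uM; SAH formed was read by MTase-Glo luminescence.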
Assay [2] has as its target Guanidinoacetate N-methyltransferase (Homo sapiens) (UniProt Q14353). Conditions: purified enzyme, MTase-Glo SAH luminescence; measured here: GAMT inhibition; at 40 µM; stronger effect = lower value. In a few lines: as §1
The target in assay [3] is Histamine N-methyltransferase (Homo sapiens) (UniProt P50135). Particulars: purified enzyme, MTase-Glo SAH luminescence; measured here: HNMT inhibition; at 40 µM; stronger effect = lower value. The method, boiled down:
as §1

Assay [4] concerns the target Nicotinamide N-methyltransferase (Homo sapiens) (UniProt P40261). Conditions: purified enzyme, MTase-Glo SAH luminescence; measured here: NNMT inhibition; at 40 µM; stronger effect = lower value. The method, boiled down:
as §1

The target in assay [5] is Phenylethanolamine N-methyltransferase (Homo sapiens) (UniProt P11086). Conditions: purified enzyme, MTase-Glo SAH luminescence; measured here: PNMT inhibition; at 40 µM; stronger effect = lower value. The method, boiled down:
as §1
% is set by controls: 0 for no effect and ±100 for the full control effect.

For the molecule `CCCn1c(=O)c2ccc(C(=O)NC(C)C)cc2n2c(=O)n(CC(=O)Nc3ccc(C)c(C)c3)nc12`, the activity change, negative = inhibition was 6.56% in assay [1]; 4.8% in assay [2]; 8.11% in assay [3]; 4.46% in assay [4]; 4.37% in assay [5].

Regarding `Cc1cccc(NC(=O)CSc2nnc3n(CC(C)C)c(=O)c4ccc(C(=O)NCC(C)C)cc4n23)c1`, the activity change, negative = inhibition in assay [1] is -7.48%; in assay [2], 4.16%; in assay [3] it was 2.16%; in assay [4], 2.91%; in assay [5] it was -2.2%.

As for `O=C(Cn1c(=O)oc2cc(S(=O)(=O)N3CCCCC3)ccc21)N1CCc2ccccc2C1`, the activity change, negative = inhibition is -3.26% in assay [1]; 0% in assay [2]; 5.6% in assay [3]; 9.78% in assay [4]; -20.7% in assay [5].

For `C=C1C(OC2OCC(O)C(O)C2O)CC2C(C)(C)C(O)CCC2(C)C1CC/C(C)=C\CO` (configuration not stated), the activity change, negative = inhibition in assay [1] is -2.06%; in assay [2] it was 4.14%; in assay [3] it was 7.48%; in assay [4] it was -9.9%; in assay [5], -6.73%.

Turning to `O=S1(=O)CCN(Cc2cc(NCC3CCOCC3)c3[nH]c(-c4ccccc4)cc3c2)CC1`, the activity change, negative = inhibition in assay [1] was -14.4%; in assay [2], -47.2%; in assay [3], -18.5%; in assay [4] it was -57.6%; in assay [5], -22.6%.

As to `CO[C@H]1/C=C/[C@@](C)(O)/C=C/C(=O)O[C@H](C)[C@@H](C)CC/C=C/1C`, the activity change, negative = inhibition in assay [1] is -10.2%; in assay [2] it was -18%; in assay [3], -15.2%; in assay [4], -23.4%; in assay [5], -14.7%.

On to `CC1CCN(S(=O)(=O)c2ccc3c(ccn3CC(=O)NC3CCCc4ccccc43)c2)CC1` (configuration not stated), for which the activity change, negative = inhibition worked out at 4.69% in assay [1]; 0.738% in assay [2]; 3.67% in assay [3]; 5.97% in assay [4]; 1.62% in assay [5].

For `CCC[C@H]1C[C@H](C(=O)N[C@@H]([C@@H]2O[C@@H](SC)[C@@H](O)[C@@H](O)[C@@H]2O)[C@H](C)Cl)N(C)C1`, the activity change, negative = inhibition in assay [1] came to 3.76%; in assay [3], 3.75%.

With `CC[C@H]1CN2CCc3cc(OC)c(OC)cc3[C@@H]2C[C@@H]1C[C@H]1NCCc2cc(OC)c(OC)cc21`, the activity change, negative = inhibition is -7.88% in assay [1]; 5.71% in assay [2]; -8.56% in assay [3]; -3.82% in assay [4]; 6.88% in assay [5].

With `CCCSCCCN1C(=O)c2nc3ccccc3n2CC1(C)C(=O)NC1CCCC1` (configuration not stated), the activity change, negative = inhibition in assay [1] is -6.13%; in assay [2] it was 2.09%; in assay [3], -5.95%; in assay [4], -5.03%; in assay [5], -6.32%.

With `O=C(Cc1cccs1)N1CCCn2cc(-c3ccccc3F)nc21`, the activity change, negative = inhibition is -5.59% in assay [1]; -4.11% in assay [2]; -37.9% in assay [3]; -17% in assay [4]; -18.3% in assay [5].

As for `CCN(CC)CCN(Cc1ccc(-c2ccc(C(F)(F)F)cc2)cc1)C(=O)Cn1c(SCc2ccc(F)cc2)nc(=O)c2c1CCC2`, the activity change, negative = inhibition was -7.07% in assay [1]; -2.16% in assay [2]; -24.8% in assay [3]; -62.2% in assay [4]; -17.3% in assay [5].

In the case of `COc1cc(OC)cc(N2C(=O)c3cc(-c4ccccc4)nn3CC2(C)C(=O)NCc2ccccc2)c1` (configuration not stated), the activity change, negative = inhibition is 0.525% in assay [1]; 0% in assay [2]; 0.612% in assay [3]; 1.86% in assay [4]; -0.281% in assay [5].

Consider `COc1ccc(CN2CCCC(COc3ccccc3C(=O)NC3CC3)C2)c(OC)c1` (configuration not stated), for which the activity change, negative = inhibition in assay [1] is -1.92%; in assay [2], 1.75%; in assay [3], -50.6%; in assay [4] it was -28.7%; in assay [5], 0.593%.

For the molecule `COC(=O)[C@H](CC1C=NC=N1)NCC12CC3CC(CC(C3)C1)C2` (some centres not stated), the activity change, negative = inhibition in assay [1] was 1.98%; in assay [2], -4.12%; in assay [3], 9.73%; in assay [4] it was -14.4%; in assay [5] it was -0.294%.

Regarding `O=C(NC1CCc2nnc(C3CC3)n2CC1)c1cnco1` (configuration not stated), the activity change, negative = inhibition in assay [1] is 1.08%; in assay [2], 0.27%; in assay [3], 3.19%; in assay [4], -3.49%; in assay [5], 0.623%.

Turning to `CCOC(=O)[C@H](CCc1ccccc1)N[C@@H](C)C(=O)N1[C@H](C(=O)O)C[C@H]2CCCC[C@@H]21`, the activity change, negative = inhibition was 2.4% in assay [1]; -0.852% and 7.24% in assay [2]; 3.48% in assay [3]; -9.58% and -3.89% in assay [4]; 4.13% and 4.87% in assay [5].

In the case of `CCN(Cc1cccnc1)C(=O)CN(c1ccc(OC)nc1)S(=O)(=O)c1ccccc1C`, the activity change, negative = inhibition in assay [1] was -3.33%; in assay [2], -7.47%; in assay [3], 12.2%; in assay [4] it was -13.5%; in assay [5], 0.073%.

Consider `CC(C)CCn1c(=O)c2ccc(C(=O)NCC(C)C)cc2n2c(=O)n(Cc3ccccc3F)nc12`, for which the activity change, negative = inhibition in assay [1] was 9.37%; in assay [2], 3.18%; in assay [3] it was 11.4%; in assay [4], 12.4%; in assay [5], 12.2%.

Take `Cc1[nH]cnc1CN1CCc2nc(C(=O)NCCOc3ccccc3)oc2CC1`: the activity change, negative = inhibition in assay [1] is -6.68%; in assay [2], 1.11%; in assay [3], -7.16%; in assay [4], -3.73%; in assay [5], 13.6%.

`CC(=O)N[C@@H](CC(C)C)C(=O)N[C@@H](CCC(=O)O)C(=O)N[C@@H](CCC(=O)O)C(=O)N[C@@H](CC(=O)O)C(=O)Nc1ccc2c(C(F)(F)F)cc(=O)oc2c1` (Ac-LEED-{AFC}): the activity change, negative = inhibition in assay [1] was 1.49%; in assay [2], 7.72%; in assay [3], 5.11%; in assay [4] it was -7.71%; in assay [5], -1.48%.

On to `COc1ccccc1CNC(=O)C1c2c(n(C)c3ccccc23)SCC(=O)N1c1ccc(C)c(Cl)c1` (configuration not stated), for which the activity change, negative = inhibition in assay [1] was 4.7%; in assay [2], 2.54%; in assay [3], -5.5%; in assay [4] it was -7.96%; in assay [5] it was -1.93%.

On to `COC(=O)c1cc2n(n1)CC(C)(C(=O)NC1CCC(C)CC1)N(c1cc(C)cc(C)c1)C2=O` (configuration not stated), for which the activity change, negative = inhibition in assay [1] was found to be 7.67%; in assay [2], 0.741%; in assay [3] it was 3.24%; in assay [4], 9.54%; in assay [5], 7.13%.

Regarding `CCCCN(CC)CCCN1C(=O)c2cc3occc3n2CC1(C)C(=O)NC1CCCCCC1` (configuration not stated), the activity change, negative = inhibition in assay [1] was -8.81%; in assay [2] it was 0%; in assay [3] it was -5.96%; in assay [4], -2.28%; in assay [5], -6.62%.

On to `CC(C)Cn1nc(CNC(=O)c2ccccc2F)c2ccccc21`, for which the activity change, negative = inhibition is 4.62% in assay [1]; 0.917% in assay [2]; 3.81% in assay [3]; -1.77% in assay [4]; 3.24% in assay [5].

For `C[C@@H]1O[C@@H](O[C@H]2[C@H](O[C@H]3[C@H](O[C@H]4CC[C@@]5(C)C(CC[C@]6(C)C5CC=C5[C@@H]7CC(C)(C)CC(=O)[C@]7(C)CC[C@]56C)[C@@]4(C)CO)O[C@H](C(=O)O)[C@@H](O)[C@@H]3O)O[C@H](CO)[C@H](O)[C@@H]2O)[C@H](O)[C@H](O)[C@H]1O` (some centres not stated), the activity change, negative = inhibition is -1.43% in assay [1]; -1.45% in assay [2]; 7.01% in assay [3]; -19.7% in assay [4]; 8.18% in assay [5].

With `CCOC(=O)c1cc2n(n1)CC(C)(C(=O)NC1CCC(C)CC1)N(c1ccccc1CC)C2=O` (configuration not stated), the activity change, negative = inhibition amounted to 8.1% in assay [1]; 2.91% in assay [2]; 8.03% in assay [3]; 3.67% in assay [4]; 6.29% in assay [5].

For the molecule `CCOc1ccc(C(Nc2ccccn2)c2ccc3ccc(C)nc3c2O)cc1C` (configuration not stated), the activity change, negative = inhibition was 1.58% in assay [1]; -17.4% in assay [2]; 2.69% in assay [3]; -31.8% in assay [4]; -7.54% in assay [5].

With `CNc1cc(C2CC(NS(=O)(=O)c3ccc(Cl)s3)C2)nc(N)n1` (configuration not stated), the activity change, negative = inhibition in assay [1] was -6.01%; in assay [2], -0.907%; in assay [3], -17.4%; in assay [4], -19.1%; in assay [5], -13.3%.
